In the supplement of paper PMC10126150:
Sequences with one replicate were seen in a single cluster, so their values are uncertain.

Test system: ATP
Experiment: switch fluorescence ratio, 500 uM ATP over buffer (Cy3 cluster intensity, sum of 5 cycles each) (fold (ratio)); higher = stronger signal-on switching upon ATP binding; sequences stand for … in TCGTCGGCAGCGTCAGATGTGTATAAGAGACAGTTTTTTTTTTTTTTTTTTTTTTTTT…TC
Details: aptamer strand: ATP DNA aptamer (quencher-CACCTGGGGGAGTATTGCGGAGGAAGG + anchor), 100 nM annealed; ATP concentration: 500 uM; one replicate
Outline: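 Imaging in selection buffer was followed by imaging after 15 min with 500 uM ATP at 22 °C, for Cy3-labelled switching-strand clusters annealed to 100 nM quencher-labelled ATP aptamer on a modified Illumina MiSeq flow-cell. Five of these buffer/ATP cycles ran, separated by NaOH stripping and re-annealing. The fluorescence ratio per cluster is summed target-cycle over summed buffer-cycle Cy3 intensity, averaged per switch-domain sequence; clusters outside 100-1000 RFU were removed.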
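Further: ATP exposure 15 min at 22 °C before imaging.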

Sequence | switch fluorescence ratio
ATTGTGTGG | 0.948
GCCATTTA | 1.04
GACATATGAG | 1.04
ACCGGCTCCT | 1.11
AGCAGGTAAT | 1.02
CTTGGTGCTA | 1.03
TCGTCCCGCT | 1.1
GCTATACATG | 0.951
GTAGAAATCA | 1.04
AGCGTCCGCT | 0.995
AACTTCAAGT | 1.02
AGAAGCCAGC | 1.06
AAAACGACGA | 1.2
GCTCGGTGAC | 1.05
AGGGTACGGC | 0.997
TCTGGGGTTC | 0.987
GTTGCCGCT | 1.03
CGCCTCGTTC | 0.995
AGCCTTAGGC | 0.981
AATCAACGAC | 1.12
GAAAGGTTGT | 1.01
GGGGACGGTT | 0.992
TATGGTAGCG | 1.01

Sequence | switch fluorescence ratio
TGTAGACAGC | 0.973
GCGTCATTGG | 1.04
CTATACTCA | 1.11
AGTCCCGGC | 1.03
TATGTCGAAA | 1.01
ACAGGGCTGG | 1.01
CTGGTTAAGC | 0.973
TGGGATAATA | 0.989
CCTTTCTTGC | 1.36
AGTGTATCGC | 0.979
CAAAACGGTA | 1.03
TATGATTCTA | 1.02
CAACCTCGCC | 1.76
GCTCGGGTGC | 1.27
CATGGGTCGG | 0.961
CTTGCAGTAA | 1.57
AAGGAAGCGG | 1.01
GAGTACGAGG | 1.01
GCGTCCGGGG | 1.06
ACGGAGGTCC | 1.01
ACAATTACCT | 1.32
AATCCGACGT | 1.98
GTGGTCAGTT | 1.03

Sequence | switch fluorescence ratio
GCGATTAACT | 1.05
TTTGAAAGCG | 0.961
AATAGAATGT | 1
TCTCAGACGG | 0.983
GGGTGTCTTG | 1.05
GATGGGATAC | 2.14
GTTGACACCA | 1.03
GGGCTGAAAG | 1.01
TATACATTC | 1
CGCAATCGGT | 5.02
TGGGAGTTAC | 1.04
TTTATGTTGT | 0.995
CGCCAGCTGC | 1.17
GAAGCAAAAG | 2.19
TTCAGCATAA | 1.28
CCAGGGTTCT | 1.01
CACGTTATCG | 1.02
ATCAGGAATA | 1.04
CATGTGTATC | 0.998
CACAGATGTC | 0.928
CCTTCAGGCT | 1.06
TGGGCGACAC | 1.02
CATAACGTCG | 0.986

Sequence | switch fluorescence ratio
CATTGGGGC | 1.03
TATCTACAAC | 1.05
TTGGGGTCAA | 0.964
CATGACGGCA | 0.961
AACGGTTGC | 1.02
CTACCTTGA | 1.07
CCGGACGGGA | 1.03
TGCGGATTCC | 1.04
ATCAGAGCGT | 0.971
GATGTCCTAA | 1.02
TAAATGACAG | 1.01
ACGTCCTGGA | 0.977
TCGGACAGAT | 1.01
ATCAACTTTG | 0.998
CGTAGTTAGG | 1
AAGCTGGGTT | 0.964
CTATTTCTTA | 0.968
GAATAGAGCC | 0.99
AGGACTGGCG | 1.07
AATGTATCTT | 1
CGAATTGGCG | 1.06
CATGGTAATC | 1
GAAGAGTTCC | 1.02

Sequence | switch fluorescence ratio
GGAGGTTCGT | 0.997
CTTTATACAG | 1.02
GTACTTTGCA | 1.03
GTCACCGTCC | 1.43
AACGAATAAT | 0.97
CGAAGGAAAG | 0.974
AGGGCTTGAT | 1
GGCGGATACC | 1.05
TATAGATCAT | 0.98
TGTTACTGTG | 0.968
ATCCGAGGCC | 1.06
GCTGGATGGT | 0.939
CGGGATCCT | 1
ATTCGGTGGT | 1.02
GATTGCGGGA | 0.978
GACAGGGACA | 1.05
CGTCGAAATC | 1.29
TTACTCACCT | 1.42
ACTGAAATT | 0.889
AGCGTCCGTT | 0.938
CATTGGAAAG | 0.997
TTTTTATCCT | 1.04
GAAACCGATC | 3.16

Sequence | switch fluorescence ratio
ATAGTGTTGC | 0.956
ATCTAGGAGA | 1.03
CAGACTTTGT | 1.03
CGTCAGCAGG | 1.46
GGTTTATACT | 1.1
TTGATCAGCT | 0.974
TTCTCGGGTC | 0.946
GAGGAGGCAT | 1.01
ATAGTGCC | 1.04
TAACGGAGAT | 1.01
GGCGAAGTGA | 1.01
CGGCTGGGAG | 1.02
CCTTTCAATA | 2.86
TATATTATAA | 1.01
CACATGATAT | 1.02
AGCTTCGTTG | 0.981
CGGTAAAAGC | 1.02
TGCAATTGTT | 1.04
AAGCATCGCC | 0.982
TGCCCCAAAG | 1
GTTGTTTCAA | 1
CTGGGAAAGA | 0.985
AGGAGCAGTC | 1.15

Sequence | switch fluorescence ratio
CCCGGCACCG | 1.03
CTGACAATTT | 1.02
GGGGTCACGA | 0.996
ATAAAGGACG | 1
GTTTCAAAGG | 0.992
ATGATTGGG | 1.01
CTAGGCGGAA | 1.02
TTGGGTTCAG | 0.958
TTGTAGTTGT | 1.09
CAGGGTTCTA | 0.984
CATTGGAGCT | 1.07
GGTTTGTTAC | 0.959
GCCCCTTGAC | 1.03
CATTTACTAG | 1.02
CTCCTATGTA | 1.06
CGTTCCGGGA | 1.13
CCTACGTGTG | 1.13
GCAGGATTGT | 0.994
TGCGCGTTAG | 1.06
